Source: publication PMC12136788
Some of the results follow.

B1: chr16:94651144:94651145:+_ENSMUSG00000040785_ENSMUST00000117648|mus_hu|mus_mus_mus_hu_True|58_108 (ssRNA)
RNA: GGGAGUUCUACAGUCCGACGAUCAUUCUCUUGGAUCAAGUGGCGAAUAACAUAGUCCACUGCUUCAUUUAGAAAAUUUUUGCUAGAAAAACAGGUUGUAUAGUCUUCUGUGCUCAAAACUUUCCAAGAAAGCAAUUCUUUGAGCAACAGAGGAUUGAGCAUCA
B2: chr13:42874254:42874255:+_ENSG00000023516_ENST00000025301|hu_hu|motif|central (ssRNA)
RNA: GGGAGUUCUACAGUCCGACGAUCUCCACCAAUAUCUGUUUGGCAAAAACAUUCAGCUGGAGUACAGCCUCCAAGAGGACGGAAAGCAGAGGAUCGAAUAGGACUAAAUAAACCACUAUCUUCCCUUGAUGCCUUCACUGGGCGCAACAGAGGAUUGAGCAUCA
B3: chr1:163117127:163117128:-_ENSG00000143248_ENST00000313961|hu_mus|motif|central (ssRNA)
RNA: GGGAGUUCUACAGUCCGACGAUCUGCUACAAAGGAUGUAACUCAACUCACAGGGCAACUUUUGGAAGCCUGACCAGAUGACGGCUUGAUUAGCUCCUUAUAAAAUUCAGAGCGCACAAAGCGGGGCAGAGAAUCCUUCUCCAUCAACAGAGGAUUGAGCAUCA
B4: chr17:65337135:65337136:-_ENSG00000197170_ENST00000584008|hu_hu|motif|central (ssRNA)
RNA: GGGAGUUCUACAGUCCGACGAUCUCUGGAAGUUGAUAAUUCCUGCUAAUCUGUCUACUUUAGCAAAGAUGGUCUUGUUAACGGCGGGAUUUGAGAGAAAGGCUUCGGACUCAUCAACAGAUAGAUCCAGAAGCUGUGCCAUCCCAACAGAGGAUUGAGCAUCA
B5: chr1:204375296:204375297:-_ENSG00000158615_ENST00000367188|hu_mus|motif|central (ssRNA)
RNA: GGGAGUUCUACAGUCCGACGAUCUGUUCACUUCUUAACAUUGCUGUACAACAGUAAGUCCUUUGACUCGAUCCUCAGUCGGUUAAACAUUUUUUCUCUGUGCUCAAAGGCCAAGCAGUAGCCAAUGGCAACUUCUGUUUCUUGCAACAGAGGAUUGAGCAUCA
B6: chr2:42543136:42543137:+_ENSG00000143924_ENST00000318522|hu_hu|FALSE|FALSE (ssRNA)
RNA: GGGAGUUCUACAGUCCGACGAUCAUCUAUUGAGUAGCGCAUCACAGAGAGCUGUUCAUUCCCGUCUGUGUGGAUAGAAACUAGAUCUCUGGUUUCUGCAUCCAGAACAAACCACCUGCCUGAGUGCGUUCCUAUGGCCACCACCAACAGAGGAUUGAGCAUCA
B7: chr14:21838049:21838050:-_ENSG00000092201_ENST00000216297|hu_hu|FALSE|FALSE (ssRNA)
RNA: GGGAGUUCUACAGUCCGACGAUCGUUGAGCUCCCCAUCCUCCUUUACAGCGAUGGUAUAUGCCACAACUGCACUGAUAUCUAUUUUGUCAAAGCCUUCUUUGUUGAGGCAGUCAUUCCAGCUCUUCAUGAACUCUCCAGGGAACAACAGAGGAUUGAGCAUCA
B8: chr6:38652254:38652255:-_ENSG00000124767_ENST00000373365|hu_hu|FALSE|FALSE (ssRNA)
RNA: GGGAGUUCUACAGUCCGACGAUCUGAAAACUUCAUAAUGGGAAAAUCACAUUUUUGGAUUAGCGUCAUUCCAAGAACUCUAGUAUAAAAAUCCAGUGACUUCUUAGGAUCCUUCACUCGUAGCAUGGUCUGCUGCAAUAGAAACAACAGAGGAUUGAGCAUCA
B9: chr4:140556289:140556290:+_ENSMUSG00000036622_ENSMUST00000037055|mus_mus|mus_mus_mus_hu_False|8_58 (ssRNA)
RNA: GGGAGUUCUACAGUCCGACGAUCGAUGGAGCUCACCAGGCCCCCUUUUGCCGUGCAGAACCCUGUGCGGGUCACCACUGCUAGCACGUGCGGUCCCACAUAGGCCCGGGCCUGCAAGAUGAGGGUCCCACAGAAGAGUGUGUGCAACAGAGGAUUGAGCAUCA
B10: chr5:43295983:43295984:-_ENSG00000112972_ENST00000433297|hu_hu|FALSE|FALSE (ssRNA)
RNA: GGGAGUUCUACAGUCCGACGAUCGAUACUAUUUUUAUCUCUAUUCUGGUCAUUAAGGAAGUCAUUCAGCAACAUCCGAGCUAGAGAUUUCUGAACCAGUUUACAAUAUGGUGAGUGAAAGAUCAUGAAGCCAAAAUCAUUCAACAACAGAGGAUUGAGCAUCA
B11: chr14:100422286:100422287:-_ENSMUSG00000072294_ENSMUST00000097079|mus_hu|FALSE|FALSE (ssRNA)
RNA: GGGAGUUCUACAGUCCGACGAUCAGGGGACGUCCUGGCUUUGUUUAUUGACAAGUCCACUGGCUCAGUUUGUGUUUGGAAGUGAUCUACAGAUAACGAGUCCUCCGGGGGCUCCCCUUUCACAUUAUUUAGCAACAGGGGAACCAACAGAGGAUUGAGCAUCA
B12: chr2:32515631:32515632:+_ENSG00000119820_ENST00000437765|hu_mus|FALSE|FALSE (ssRNA)
RNA: GGGAGUUCUACAGUCCGACGAUCUUCAGGAUCCUCAUCUUCAACUUCCAAAAGCCAGCCAUAGCCUCUUUGUCUCAGAAAUGUAGUAGCUGUAGAUUCUUUGAUGAAAUCUCCGCUUACACCGAGGUUUAAUUUGACAUCUGGCAACAGAGGAUUGAGCAUCA
B13: chr15:98781188:98781189:-_ENSMUSG00000072235_ENSMUST00000097014|mus_hu|FALSE|FALSE (ssRNA)
RNA: GGGAGUUCUACAGUCCGACGAUCCCUAUUCAGGUUAGUAUAGGUUGGACGCUCAAUAUCGAGGUUUCUACGACAGAUGUCAUAGAUGGCCUCAUUGUCUACCAUGAAGGCACAAUCAGAGUGCUCCAGGGUGGUGUGGGUGGUCAACAGAGGAUUGAGCAUCA
B14: chr7:56126341:56126342:+_ENSG00000146731_ENST00000540286|hu_mus|hu_hu_hu_mus_True|18_108 (ssRNA)
RNA: GGGAGUUCUACAGUCCGACGAUCCAUAUUUCUCCUUUUGGCUCUGCGCAGAGCUACGAUCCCUUCUUUCGCAAGGGCAUCUAAGGAAAAGGGGUCAAUCCCCUUUUGAUUAAUAACAACAAAUCCUUUAUCUGAGUCACCACACAACAGAGGAUUGAGCAUCA

These binders were tested against T1, UNK ZnF1-3 (human, UniProt Q9C0B0 31-174) (assay: nsRBNS (natural sequence RNA bind-n-seq); RBNS binding buffer (assumed for nsRBNS): 25 mM Tris pH 7.5, 150 mM KCl, 3 mM MgCl2, 0.01% Triton X-100, 500 ug/ml BSA, 20 U/ml SUPERase-In, 4 C; UNK is unkempt and MSI1 is Musashi-1; names of the RNAs are library labels; protein concentration not given here; high values mean tight binding).
T1 sequence: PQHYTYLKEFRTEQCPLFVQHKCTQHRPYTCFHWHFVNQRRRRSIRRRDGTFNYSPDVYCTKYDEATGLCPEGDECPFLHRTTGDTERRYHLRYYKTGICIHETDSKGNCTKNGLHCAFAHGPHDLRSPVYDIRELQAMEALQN
B1 showed a binding signal of 0.578 enrichment R.
For B2, the binding signal was 1.46 enrichment R.
B3 showed a binding signal of 1.05 enrichment R.
B4 showed a binding signal of 0.8 enrichment R.
With B5 the binding signal was 0.681 enrichment R.
B6 showed a binding signal of 1.04 enrichment R.
Binder B7 has a binding signal of 1.04 enrichment R.
Work on B8 yielded a binding signal of 0.5 enrichment R.
For B9, the binding signal was 2.12 enrichment R.
B10 was tested, and the binding signal was 0.972 enrichment R.
B11 gave a binding signal of 0.708 enrichment R.
B12 showed a binding signal of 0.837 enrichment R.
In the case of B13, the binding signal is reported as 0.684 enrichment R.
B14 showed a binding signal of 0.895 enrichment R.
